This note sets out measurements from publication PMC8542038.

The chains behind the UniProt entries cited, without tags or fusion partners.
UniProt Q9UQE7: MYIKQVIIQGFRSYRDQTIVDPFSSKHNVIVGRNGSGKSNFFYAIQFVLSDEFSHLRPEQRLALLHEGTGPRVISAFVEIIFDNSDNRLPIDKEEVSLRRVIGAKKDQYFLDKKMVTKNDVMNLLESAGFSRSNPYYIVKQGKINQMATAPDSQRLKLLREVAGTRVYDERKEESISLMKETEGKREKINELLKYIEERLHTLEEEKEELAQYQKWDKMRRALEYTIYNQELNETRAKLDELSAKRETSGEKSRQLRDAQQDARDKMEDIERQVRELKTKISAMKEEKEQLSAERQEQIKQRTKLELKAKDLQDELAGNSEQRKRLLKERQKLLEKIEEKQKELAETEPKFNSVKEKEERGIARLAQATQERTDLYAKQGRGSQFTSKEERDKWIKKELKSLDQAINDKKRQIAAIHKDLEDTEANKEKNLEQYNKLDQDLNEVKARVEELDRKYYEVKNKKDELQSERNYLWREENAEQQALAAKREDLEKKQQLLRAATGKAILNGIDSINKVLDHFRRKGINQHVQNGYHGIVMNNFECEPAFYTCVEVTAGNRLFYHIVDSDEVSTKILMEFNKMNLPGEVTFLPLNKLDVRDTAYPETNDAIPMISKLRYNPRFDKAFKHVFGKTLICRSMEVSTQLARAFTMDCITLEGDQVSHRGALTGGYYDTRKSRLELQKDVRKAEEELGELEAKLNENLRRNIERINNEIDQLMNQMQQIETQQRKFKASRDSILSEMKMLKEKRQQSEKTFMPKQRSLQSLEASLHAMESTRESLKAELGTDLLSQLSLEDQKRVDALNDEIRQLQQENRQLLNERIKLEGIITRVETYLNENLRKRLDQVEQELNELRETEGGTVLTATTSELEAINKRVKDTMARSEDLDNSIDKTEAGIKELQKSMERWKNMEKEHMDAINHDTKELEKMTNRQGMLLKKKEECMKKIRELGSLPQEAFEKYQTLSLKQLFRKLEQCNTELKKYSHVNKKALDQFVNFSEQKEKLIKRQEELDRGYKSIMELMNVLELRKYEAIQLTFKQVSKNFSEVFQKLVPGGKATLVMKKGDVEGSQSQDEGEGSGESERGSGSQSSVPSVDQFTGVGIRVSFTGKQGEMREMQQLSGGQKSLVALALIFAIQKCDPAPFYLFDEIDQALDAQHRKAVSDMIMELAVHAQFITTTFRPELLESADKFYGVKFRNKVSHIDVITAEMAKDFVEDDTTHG
UniProt P51532: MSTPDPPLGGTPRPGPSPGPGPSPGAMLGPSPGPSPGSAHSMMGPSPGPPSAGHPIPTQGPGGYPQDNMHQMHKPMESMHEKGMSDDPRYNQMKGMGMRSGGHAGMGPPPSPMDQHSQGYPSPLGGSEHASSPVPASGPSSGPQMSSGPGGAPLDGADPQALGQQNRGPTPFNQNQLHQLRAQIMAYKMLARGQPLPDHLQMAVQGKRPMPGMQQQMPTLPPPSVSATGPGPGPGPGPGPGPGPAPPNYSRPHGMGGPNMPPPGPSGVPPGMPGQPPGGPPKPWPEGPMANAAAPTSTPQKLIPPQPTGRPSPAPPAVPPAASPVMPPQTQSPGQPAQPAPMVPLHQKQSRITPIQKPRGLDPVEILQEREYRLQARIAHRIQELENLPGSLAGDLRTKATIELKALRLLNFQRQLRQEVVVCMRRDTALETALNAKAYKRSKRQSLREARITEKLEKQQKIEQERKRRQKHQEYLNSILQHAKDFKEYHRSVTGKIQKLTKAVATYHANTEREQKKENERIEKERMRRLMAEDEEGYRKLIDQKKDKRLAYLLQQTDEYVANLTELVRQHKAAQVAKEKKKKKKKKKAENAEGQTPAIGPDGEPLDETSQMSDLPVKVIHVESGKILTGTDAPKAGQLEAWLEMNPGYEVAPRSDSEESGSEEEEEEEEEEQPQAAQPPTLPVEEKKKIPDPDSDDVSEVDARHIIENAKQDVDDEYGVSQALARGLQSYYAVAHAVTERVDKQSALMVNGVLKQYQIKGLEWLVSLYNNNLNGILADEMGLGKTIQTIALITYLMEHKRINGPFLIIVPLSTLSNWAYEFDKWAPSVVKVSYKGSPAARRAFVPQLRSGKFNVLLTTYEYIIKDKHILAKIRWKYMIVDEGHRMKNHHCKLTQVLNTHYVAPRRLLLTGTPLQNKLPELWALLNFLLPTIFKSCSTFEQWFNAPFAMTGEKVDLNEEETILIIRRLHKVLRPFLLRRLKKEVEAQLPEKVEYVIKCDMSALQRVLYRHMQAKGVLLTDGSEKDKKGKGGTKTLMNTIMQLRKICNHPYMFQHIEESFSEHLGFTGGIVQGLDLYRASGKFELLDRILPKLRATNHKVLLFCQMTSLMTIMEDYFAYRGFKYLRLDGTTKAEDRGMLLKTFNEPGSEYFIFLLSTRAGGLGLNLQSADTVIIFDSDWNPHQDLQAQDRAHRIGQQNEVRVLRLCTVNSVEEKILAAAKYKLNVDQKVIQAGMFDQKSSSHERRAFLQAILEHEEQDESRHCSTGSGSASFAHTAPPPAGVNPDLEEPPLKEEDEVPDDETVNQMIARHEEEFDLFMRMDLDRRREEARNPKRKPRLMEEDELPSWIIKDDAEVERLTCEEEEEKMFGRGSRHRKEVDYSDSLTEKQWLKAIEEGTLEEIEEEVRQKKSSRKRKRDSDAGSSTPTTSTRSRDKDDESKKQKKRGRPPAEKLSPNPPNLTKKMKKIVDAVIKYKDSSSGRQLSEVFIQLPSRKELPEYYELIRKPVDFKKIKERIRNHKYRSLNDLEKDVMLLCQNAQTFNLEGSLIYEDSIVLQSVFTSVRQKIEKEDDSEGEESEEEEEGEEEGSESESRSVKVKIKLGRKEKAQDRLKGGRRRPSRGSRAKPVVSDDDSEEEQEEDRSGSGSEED
UniProt Q3TKT4: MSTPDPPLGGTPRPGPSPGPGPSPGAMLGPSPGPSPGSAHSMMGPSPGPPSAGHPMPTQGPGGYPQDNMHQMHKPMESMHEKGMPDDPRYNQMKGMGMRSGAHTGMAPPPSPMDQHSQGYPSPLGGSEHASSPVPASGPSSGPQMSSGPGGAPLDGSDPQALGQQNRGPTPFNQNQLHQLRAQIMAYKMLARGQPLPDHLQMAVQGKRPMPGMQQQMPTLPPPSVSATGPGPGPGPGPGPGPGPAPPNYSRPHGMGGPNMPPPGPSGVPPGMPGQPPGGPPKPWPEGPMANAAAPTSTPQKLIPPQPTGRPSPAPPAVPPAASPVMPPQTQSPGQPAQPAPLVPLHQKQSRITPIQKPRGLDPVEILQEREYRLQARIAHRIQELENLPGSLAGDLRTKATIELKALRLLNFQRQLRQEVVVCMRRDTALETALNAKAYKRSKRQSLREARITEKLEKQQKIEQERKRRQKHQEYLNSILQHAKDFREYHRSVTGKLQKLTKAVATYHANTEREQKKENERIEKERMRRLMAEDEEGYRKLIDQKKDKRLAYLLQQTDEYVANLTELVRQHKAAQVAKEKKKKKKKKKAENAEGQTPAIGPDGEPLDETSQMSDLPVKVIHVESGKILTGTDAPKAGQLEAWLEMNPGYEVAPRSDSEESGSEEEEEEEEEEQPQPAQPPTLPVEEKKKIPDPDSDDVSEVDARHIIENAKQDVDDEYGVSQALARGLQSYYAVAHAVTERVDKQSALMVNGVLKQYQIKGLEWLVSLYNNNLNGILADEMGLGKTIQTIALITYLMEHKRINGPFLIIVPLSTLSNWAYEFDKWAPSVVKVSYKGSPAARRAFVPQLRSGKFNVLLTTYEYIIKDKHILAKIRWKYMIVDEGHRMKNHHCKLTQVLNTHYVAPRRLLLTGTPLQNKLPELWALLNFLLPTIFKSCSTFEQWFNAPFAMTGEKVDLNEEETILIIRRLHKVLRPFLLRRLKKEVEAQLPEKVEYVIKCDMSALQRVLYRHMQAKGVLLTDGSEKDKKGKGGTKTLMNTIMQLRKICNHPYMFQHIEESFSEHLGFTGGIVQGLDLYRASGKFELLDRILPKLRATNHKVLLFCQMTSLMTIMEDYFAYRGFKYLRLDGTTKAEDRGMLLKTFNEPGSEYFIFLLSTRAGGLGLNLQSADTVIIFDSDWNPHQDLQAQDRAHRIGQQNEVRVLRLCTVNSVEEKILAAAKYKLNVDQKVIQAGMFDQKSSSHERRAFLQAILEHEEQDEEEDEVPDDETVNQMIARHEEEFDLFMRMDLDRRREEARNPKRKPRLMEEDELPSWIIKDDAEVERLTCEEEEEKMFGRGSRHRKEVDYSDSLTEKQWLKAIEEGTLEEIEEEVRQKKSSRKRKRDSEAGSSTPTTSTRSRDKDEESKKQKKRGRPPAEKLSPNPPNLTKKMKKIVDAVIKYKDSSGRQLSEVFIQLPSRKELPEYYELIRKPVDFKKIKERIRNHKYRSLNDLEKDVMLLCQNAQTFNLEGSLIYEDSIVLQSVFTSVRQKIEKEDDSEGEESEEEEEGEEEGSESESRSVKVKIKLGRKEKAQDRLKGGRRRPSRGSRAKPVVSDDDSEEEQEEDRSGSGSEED

The target in test [1] is T1, GST-RAD21 (UniProt O60216).
T1 sequence: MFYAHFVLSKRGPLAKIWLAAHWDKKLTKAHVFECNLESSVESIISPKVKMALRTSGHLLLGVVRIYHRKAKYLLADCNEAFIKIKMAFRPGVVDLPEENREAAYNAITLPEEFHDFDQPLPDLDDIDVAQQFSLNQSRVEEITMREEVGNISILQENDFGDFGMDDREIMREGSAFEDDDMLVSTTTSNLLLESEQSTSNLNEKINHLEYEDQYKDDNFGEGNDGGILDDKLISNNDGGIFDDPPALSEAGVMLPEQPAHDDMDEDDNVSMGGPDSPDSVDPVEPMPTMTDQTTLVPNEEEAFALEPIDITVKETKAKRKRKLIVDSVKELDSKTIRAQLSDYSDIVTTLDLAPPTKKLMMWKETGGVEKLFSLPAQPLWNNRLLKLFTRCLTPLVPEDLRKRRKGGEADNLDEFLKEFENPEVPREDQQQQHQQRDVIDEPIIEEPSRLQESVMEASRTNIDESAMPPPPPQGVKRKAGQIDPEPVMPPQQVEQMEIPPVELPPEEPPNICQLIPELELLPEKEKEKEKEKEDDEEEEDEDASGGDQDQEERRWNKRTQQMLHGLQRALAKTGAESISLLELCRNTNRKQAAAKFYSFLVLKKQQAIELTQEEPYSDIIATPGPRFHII
The test can be described thus: pull-down; purified GST or GST-RAD21 incubated with in vitro translated BRG1-Flag in binding buffer at 4 °C for 2 h, glutathione-Sepharose beads, five washes; detected with anti-BRG1 antibody; only the target purified.

Test [2] has as its target T2, RAD21 (human (endogenous in MHCC-97H, SK-HEP-1, HepG2, HEK293T)) (UniProt O60216).
T2 sequence: T1 sequence
The test can be described thus: co-sedimentation; nuclear fractions of ARID1A WT and KO AB17 or MHCC-97H cells on 5 to 35% glycerol or 5 to 50% sucrose gradients, 16 h at 35,000 rpm, fractions immunoblotted. (In general: A western blot detects proteins with antibodies after separation by electrophoresis.)

Test [3] deals with T2, RAD21 (human (endogenous in MHCC-97H, SK-HEP-1, HepG2, HEK293T)). The test can be described thus: co-IP; endogenous proteins, nuclear extracts of human liver cancer cells (ARID1A WT and KO MHCC-97H; MHCC-97H, SK-HEP-1, HepG2); Protein G beads, washes with 300 mM NaCl lysis buffer, immunoblot.
Test [4] shares this target. The test can be described thus: co-IP; Flag-tagged BRG1-transfected HEK293T cells, partners not transfected; immunoblot.
The target in test [5] is SMC3 (human (endogenous in HEK293T)) (UniProt Q9UQE7). The test is described as above.
The target of test [6] is T3, HA-RAD21 (UniProt O60216).
T3 sequence: T1 sequence
The test can be described thus: co-IP; HEK293T cells transfected with differently tagged constructs (T7-ARID1A or BRG1-FLAG with HA-CTCF or HA-RAD21); IP with anti-T7, anti-Flag and anti-HA antibodies, immunoblot.

In test [7] the target is T4, Rad21 (mouse (endogenous in AB17, MEF)) (UniProt Q61550).
T4 sequence: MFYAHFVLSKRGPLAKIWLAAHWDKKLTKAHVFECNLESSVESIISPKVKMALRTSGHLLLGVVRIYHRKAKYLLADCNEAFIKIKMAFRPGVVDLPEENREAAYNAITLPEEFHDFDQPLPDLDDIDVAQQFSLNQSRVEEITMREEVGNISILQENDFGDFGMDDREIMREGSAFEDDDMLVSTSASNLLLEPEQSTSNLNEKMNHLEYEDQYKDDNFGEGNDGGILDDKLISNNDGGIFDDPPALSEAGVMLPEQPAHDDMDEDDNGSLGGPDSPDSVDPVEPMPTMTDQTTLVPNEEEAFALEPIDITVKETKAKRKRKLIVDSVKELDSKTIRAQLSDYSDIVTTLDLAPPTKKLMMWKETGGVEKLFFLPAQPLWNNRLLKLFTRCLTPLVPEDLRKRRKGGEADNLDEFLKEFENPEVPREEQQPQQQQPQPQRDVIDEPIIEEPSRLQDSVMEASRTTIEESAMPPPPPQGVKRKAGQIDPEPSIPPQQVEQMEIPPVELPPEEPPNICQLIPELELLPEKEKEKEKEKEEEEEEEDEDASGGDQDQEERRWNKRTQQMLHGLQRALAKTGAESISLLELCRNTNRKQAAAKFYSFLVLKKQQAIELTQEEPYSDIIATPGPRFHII
The test can be described thus: co-sedimentation; nuclear fractions of ARID1A WT and KO AB17 or MHCC-97H cells on 5 to 35% glycerol or 5 to 50% sucrose gradients, 16 h at 35,000 rpm, fractions immunoblotted.

Results are given in words; binding and its absence hold for the method and conditions named. In cells and extracts the contact can be indirect. Some entries that bind do so weakly or less than the wild type. For some of these results: Tags and fused reporters may be left off the sequences shown.

As to “BRG1-Flag, in vitro translated (from UniProt P51532 1-1647)”, in test [1], the binding result is “binds”.
For BRG1 (from UniProt P51532 1-1647), the binding result in test [2] and in test [3] was “binds” throughout.
BRG1-FLAG (from UniProt P51532 1-1647): the binding entry in test [4] is given as “binds”; in test [5], “no binding”; in test [6], “binds”.
Turning to Brg1 (from UniProt Q3TKT4 1-1613), the binding result in test [7] was “binds”.
